Results: the supplement of paper PMC10369915
This is one part of the list. No stated cut-off is given here; in the data, active = 3.2 or more and inactive = the rest. The signal is at background level for most entries.

Assays:
Assay in all cases: enrichment score (SH2-bound / input frequency) (ratio); bacterial display of known human phosphotyrosine sites (pTyr-Var adds point mutants) read by sequencing; higher = stronger binding; tyrosines were phosphorylated by kinases first
Conditions in all cases: peptide library: pTyr-Var
[1] = biological target: SHP2 C-SH2 domain E139D
[2] = biological target: SHP2 C-SH2 domain wild-type
[3] = biological target: SHP2 N-SH2 domain L43F
[4] = biological target: SHP2 N-SH2 domain T42A
[5] = biological target: SHP2 N-SH2 domain T52S
[6] = biological target: SHP2 N-SH2 domain wild-type

Measured: enrichment score
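Further: displayed peptides selected on beads carrying the immobilized SH2 domain, with library peptides lacking any tyrosine serving as negative controls.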

FKPENYRRLDI [VHL_Y175_V170F]
inactive: [1] 0.739 | [2] 0.775 | [3] 0.808 | [4] 0.798 | [5] 0.751 | [6] 0.712

LEFGDCHPLKP [VPS35L_Y32_Y32C]
inactive: [1] 0.885 | [2] 0.906 | [3] 1.06 | [4] 0.805 | [5] 0.786 | [6] 0.963

NDEDIYKGLPD [VAV3_Y141]
inactive: [1] 0.429 | [2] 0.641 | [3] 0.497 | [4] 0.417 | [5] 0.54 | [6] 0.69

RRIFSYRGHLW [VHL_Y112_H110Y_YF]
inactive: [1] 0.319 | [2] 0.229 | [3] 0.386 | [4] 0.272 | [5] 0.219 | [6] 0.236

RRIHSYRGHLC [VHL_Y112_W117C]
inactive: [1] 0.237 | [2] 0.267 | [3] 0.241 | [4] 0.297 | [5] 0.357 | [6] 0.274

AEFGLYRAMVR [VSX2_Y222_G223R_YF]
inactive: [1] 0.71 | [2] 0.708 | [3] 0.757 | [4] 0.648 | [5] 0.756 | [6] 0.839

RRIHSNRGHLW [VHL_Y112_Y112N]
inactive: [1] 0.321 | [2] 0.356 | [3] 0.329 | [4] 0.315 | [5] 0.276 | [6] 0.357

AEYGLYAAMVR [VSX2_Y222_G223A]
inactive: [1] 0.834 | [2] 0.819 | [3] 0.813 | [4] 0.726 | [5] 0.623 | [6] 0.988

RRIHSYRGQLW [VHL_Y112_H115Q]
inactive: [1] 0.232 | [2] 0.277 | [3] 0.381 | [4] 0.168 | [5] 0.185 | [6] 0.216

GVASDYKCVDP [VPS13B_Y1991_I1994V]
inactive: [1] 0.954 | [2] 0.852 | [3] 0.652 | [4] 0.626 | [5] 0.72 | [6] 0.771

PRIHSYRGHLW [VHL_Y112_R107P]
inactive: [1] 2.99 | [2] 2.72 | [3] 2.8 | [4] 2.42 | [5] 2.25 | [6] 2.82

SVMAEYGLYRA [VSX2_Y219_G223R]
inactive: [1] 1.02 | [2] 0.918 | [3] 1.01 | [4] 0.745 | [5] 0.931 | [6] 0.953

SVMAEYGLYGA [VSX2_Y219]
inactive: [1] 0.962 | [2] 0.71 | [3] 0.709 | [4] 0.634 | [5] 0.925 | [6] 0.91

SVMAEYGLFGA [VSX2_Y219_YF]
inactive: [1] 0.905 | [2] 0.75 | [3] 0.71 | [4] 0.707 | [5] 0.857 | [6] 0.768

RRIHCYRGHLW [VHL_Y112_S111C]
inactive: [1] 0.499 | [2] 0.248 | [3] 0.372 | [4] 0.496 | [5] 0.333 | [6] 0.523

QKLPLYILENN [VPS13B_Y2774_S2773L]
inactive: [1] 1.49 | [2] 1.05 | [3] 1 | [4] 1.07 | [5] 1.12 | [6] 1.23

RRIHSYRGFLW [VHL_Y112_H115Y_YF]
inactive: [1] 0.29 | [2] 0.303 | [3] 0.3 | [4] 0.256 | [5] 0.323 | [6] 0.199

RRIHSHRGHLW [VHL_Y112_Y112H]
inactive: [1] 0.3 | [2] 0.222 | [3] 0.325 | [4] 0.437 | [5] 0.262 | [6] 0.198

NDDDVYLSLEE [VAV2_Y142_R143L]
inactive: [1] 0.447 | [2] 0.568 | [3] 0.51 | [4] 0.275 | [5] 0.507 | [6] 0.479

VVRSLYEDLED [VHL_Y185_I180V]
inactive: [1] 1 | [2] 0.739 | [3] 0.856 | [4] 0.67 | [5] 0.69 | [6] 0.833

AEYGLYRAMVR [VSX2_Y222_G223R]
inactive: [1] 0.802 | [2] 0.962 | [3] 0.771 | [4] 0.975 | [5] 0.611 | [6] 0.897

KNSSIYVVANI [VNN1_Y134_N131S]
inactive: [1] 1.26 | [2] 1.56 | [3] 1.38 | [4] 1.44 | [5] 1.32 | [6] 1.59

IVRSLYKDLED [VHL_Y185_E186K]
inactive: [1] 1.07 | [2] 0.774 | [3] 1.15 | [4] 0.768 | [5] 0.865 | [6] 0.826

DKPENYRRLDI [VHL_Y175_V170D]
inactive: [1] 0.463 | [2] 0.408 | [3] 0.436 | [4] 0.327 | [5] 0.611 | [6] 0.354

SVMAEYGLFAA [VSX2_Y219_G223A_YF]
inactive: [1] 1.1 | [2] 0.944 | [3] 0.914 | [4] 0.872 | [5] 0.903 | [6] 0.871

RRIHRYRGHLW [VHL_Y112_S111R]
inactive: [1] 0.236 | [2] 0.221 | [3] 0.25 | [4] 0.248 | [5] 0.101 | [6] 0.185

IVRSLYEDVED [VHL_Y185_L188V]
inactive: [1] 0.926 | [2] 0.876 | [3] 0.923 | [4] 0.997 | [5] 0.812 | [6] 0.909

VKPENYRRLDI [VHL_Y175]
inactive: [1] 0.666 | [2] 0.561 | [3] 0.566 | [4] 0.466 | [5] 0.617 | [6] 0.537

RRIHSYRGHLW [VHL_Y112]
inactive: [1] 0.294 | [2] 0.336 | [3] 0.288 | [4] 0.325 | [5] 0.179 | [6] 0.212

IVRSLYEDPED [VHL_Y185_L188P]
inactive: [1] 0.87 | [2] 0.959 | [3] 0.99 | [4] 0.831 | [5] 1.05 | [6] 0.925

ISSLDYISKTK [VAV3_Y294]
inactive: [1] 0.618 | [2] 0.469 | [3] 0.65 | [4] 0.74 | [5] 0.658 | [6] 0.725

RRIHSYRGYLW [VHL_Y112_H115Y]
inactive: [1] 0.284 | [2] 0.205 | [3] 0.214 | [4] 0.223 | [5] 0.211 | [6] 0.197

RRIHNYRGHLW [VHL_Y112_S111N]
inactive: [1] 0.21 | [2] 0.206 | [3] 0.245 | [4] 0.35 | [5] 0.147 | [6] 0.283

RRIHSYRGHVW [VHL_Y112_L116V]
inactive: [1] 0.297 | [2] 0.367 | [3] 0.175 | [4] 0.276 | [5] 0.164 | [6] 0.332

WFPYTYVEEDE [VAV3_Y842_S840Y]
inactive: [1] 1.25 | [2] 1.33 | [3] 1.82 | [4] 1.43 | [5] 2.38 | [6] 1.59

VKPENYWRLDI [VHL_Y175_R176W]
inactive: [1] 1 | [2] 0.957 | [3] 0.822 | [4] 1.02 | [5] 1.07 | [6] 1.19

ERRLIYTSDPK [VPS13D_Y864]
inactive: [1] 0.663 | [2] 0.739 | [3] 0.899 | [4] 0.588 | [5] 1.07 | [6] 0.786
